# Assay results taken from the BET-seq Pho4 binding data (Le et al. 2018).
# Some of the results follow. The energies were worked out here from pooled read counts, against the library average; single values are noisy.
# Target: T1, Pho4 (S. cerevisiae) (UniProt P07270)
# T1 sequence: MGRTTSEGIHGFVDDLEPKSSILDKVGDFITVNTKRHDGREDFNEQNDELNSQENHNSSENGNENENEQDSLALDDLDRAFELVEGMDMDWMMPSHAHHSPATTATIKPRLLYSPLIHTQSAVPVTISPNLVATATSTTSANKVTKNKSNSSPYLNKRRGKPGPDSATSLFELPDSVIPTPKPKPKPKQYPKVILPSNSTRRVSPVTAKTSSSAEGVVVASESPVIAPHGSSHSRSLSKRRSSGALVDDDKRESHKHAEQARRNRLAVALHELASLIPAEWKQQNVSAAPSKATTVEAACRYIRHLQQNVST
# Test: relative binding free energy (BET-seq); higher = weaker binding
# Details: reference: library average
row,Sequence,relative binding free energy [kcal/mol]
1,GGGTGCACGTGTCAGT,-0.09
2,GTAGGCACGTGGTTGG,-0.08
3,GTTGTCACGTGTACTG,0.21
4,ATATACACGTGTCGTT,-0.02
5,TGTGACACGTGTCATG,-0.03
6,GATTGCACGTGGCCTG,0.04
7,GTGTGCACGTGAGGGT,0.21
8,GGGCTCACGTGGTCGG,0.26
9,TAGTCCACGTGGTCGT,0.02
10,AATCTCACGTGAGGGG,0.38
11,TTTTTCACGTGGAAGG,0.25
12,AGTGGCACGTGATCTT,0.05
13,AGACGCACGTGGGGTA,-0.2
14,GTGGGCACGTGCATTT,-0.11
15,TAAGGCACGTGTAGTG,-0.02
16,AGTTTCACGTGTGCGA,0.22
17,GTATCCACGTGGGGCG,-0.11
18,AATGTCACGTGTTATA,0.02
19,ATAAGCACGTGCGGTG,-0.14
20,GAGTGCACGTGATTTG,0.17
21,TGGCTCACGTGACGGT,0.28
22,TGTTGCACGTGCAATG,0.03
23,TTTTCCACGTGAGGCG,0.32
24,AGTGGCACGTGCGATG,-0.17
25,TGGGACACGTGACGTT,0.09
26,AATTTCACGTGCTATT,0.09

row,Sequence,relative binding free energy [kcal/mol]
1,TGTATCACGTGGAGAA,0.11
2,GGGTGCACGTGTCTGA,-0.07
3,TCTGGCACGTGTAGAG,0.02
4,TTTAACACGTGTATGA,-0.17
5,GTGCTCACGTGGTGGA,0.05
6,TAGGTCACGTGGCGAA,0.11
7,ATTTGCACGTGGTTGC,-0.12
8,GAGTTCACGTGATTAG,0.63
9,GCTTTCACGTGGGAGT,0.36
10,AATTGCACGTGAGTTG,0.12
11,AGAATCACGTGGTTTG,0.06
12,TAATTCACGTGTTTCT,0.28
13,ACGTTCACGTGGTTGG,0.12
14,CGGGTCACGTGTGGCT,0.26
15,GCGGGCACGTGCAGGT,-0.1
16,TTTGTCACGTGGAGAA,0.13
17,AGAAGCACGTGGGGAG,-0.26
18,AATCTCACGTGGTGAT,0.18
19,TTTATCACGTGGTTAG,0.12
20,GGGCTCACGTGTTGTC,0.28
21,GATTGCACGTGTGGGG,0.1
22,GTAAACACGTGGTTTG,0.11
23,AGGGTCACGTGCATGG,0.1
24,TCAGGCACGTGGCTGG,-0.14
25,GTGGGCACGTGTCTGT,-0.12
26,GTAGACACGTGTGATG,-0.06

row,Sequence,relative binding free energy [kcal/mol]
1,TGTAGCACGTGAGGGA,0.16
2,GTGGGCACGTGGTTCT,-0.04
3,CGAGCCACGTGCGGGG,-0.09
4,TATGGCACGTGGTCTG,-0.16
5,TAGAGCACGTGTTTAA,-0.2
6,TGGATCACGTGCTTAT,0.08
7,CTTGGCACGTGGGTTA,-0.26
8,TAGGACACGTGTAGTT,0.02
9,TTGGGCACGTGGATTA,0.02
10,ATTTGCACGTGTGAAG,0.12
11,GGGTTCACGTGCGAAT,0.39
12,TGCGGCACGTGGTAGT,-0.26
13,AATGTCACGTGCAGGA,0.19
14,AGTGTCACGTGGGTAC,-0.23
15,ACATGCACGTGTTTGG,-0.07
16,TATAGCACGTGCAAGG,0.03
17,AAAATCACGTGTTTTT,0.11
18,TGGTTCACGTGGGGGC,0.21
19,GGGTTCACGTGACATT,0.38
20,TTGAGCACGTGGAAGA,-0.02
21,ATTGACACGTGGTTGT,0.05
22,GAGTGCACGTGAGGAA,0.31
23,GAGTTCACGTGGGCAT,0.19
24,CTGTACACGTGTTTGG,-0.06
25,TCTGTCACGTGATGGA,0.17
26,TGATGCACGTGGGCGG,-0.26

row,Sequence,relative binding free energy [kcal/mol]
1,AATGGCACGTGTGAAG,-0.05
2,AGTCACACGTGAGTTG,0.15
3,TATTGCACGTGCTATG,-0.1
4,CAGGCCACGTGGGTGT,-0.17
5,TTGTGCACGTGGGGGA,-0.14
6,TGGCTCACGTGGGATA,0.22
7,TGTAGCACGTGAATGG,0.2
8,TGCACCACGTGAAGGG,0.29
9,ACTGTCACGTGAATTT,0.39
10,TTTAGCACGTGTCGCT,0.1
11,TCTGACACGTGGAGTT,0.01
12,AACATCACGTGGGGGG,-0.02
13,AAATGCACGTGTGTGT,0.04
14,TGTTGCACGTGGTGGT,0
15,TGGCTCACGTGTGTCA,0.23
16,GGGATCACGTGGTTCA,0.17
17,GTTTACACGTGGCATG,0.03
18,AAGGGCACGTGCGTGC,-0.25
19,TGGCTCACGTGGATGA,0.24
20,TCATACACGTGGTGGA,-0.03
21,CGGAACACGTGTTGGT,0.02
22,AAGGGCACGTGACTTT,0.1
23,GTTGGCACGTGTCTAG,0.06
24,TAATACACGTGATTGA,0.11
25,GGCGGCACGTGTTCGT,0.1
26,GCTTCCACGTGGATGT,0.23

row,Sequence,relative binding free energy [kcal/mol]
1,TCGGGCACGTGTCATT,0.07
2,TATAGCACGTGCATTT,0.02
3,AGTGTCACGTGACGGA,0.11
4,TTTGACACGTGTTGGT,0.02
5,CTAAGCACGTGAGGTT,0.27
6,TTGTGCACGTGTTACG,0.03
7,GAAGGCACGTGGGGAA,-0.06
8,TGCGGCACGTGAATGT,0.2
9,AGGTTCACGTGTTTTA,0.36
10,AATGGCACGTGACGTT,0.03
11,GAGGGCACGTGTTTTG,-0.03
12,TTAAGCACGTGATTAG,-0.06
13,TTGGTCACGTGAAATT,0.44
14,TTTGACACGTGGATTT,0.13
15,TTGTGCACGTGCGTTC,-0.26
16,AGTGCCACGTGTAATG,-0.01
17,TTGGGCACGTGCATCG,-0.18
18,ACTAGCACGTGGGGCG,-0.22
19,TTGACCACGTGGTGTG,-0.14
20,TAAATCACGTGATGTT,0.23
21,TAGTACACGTGAAGGG,0.33
22,GATAACACGTGGGTGA,-0.02
23,CAGGTCACGTGATGTA,0.17
24,TATATCACGTGGGTCG,-0.01
25,GTCTGCACGTGATTGT,0.14
26,GTTTGCACGTGGAAGC,0.09

row,Sequence,relative binding free energy [kcal/mol]
1,TGTTGCACGTGCGCGA,-0.08
2,AGATTCACGTGGTGCG,0.23
3,AGGTACACGTGGGGAT,0.05
4,TTGGCCACGTGGGCGT,-0.15
5,CGTATCACGTGGGAGC,0.17
6,TTTAGCACGTGCAGGT,0.02
7,GTGGGCACGTGCGTCG,-0.07
8,CTGTTCACGTGGATGT,0.22
9,AGTGTCACGTGTTCTG,-0.02
10,GGGTTCACGTGTGCAT,0.33
11,GGTGGCACGTGGACGC,-0.13
12,TGCGGCACGTGATCTG,0
13,AAGGTCACGTGTGTCA,0.05
14,TTGTCCACGTGGGAGC,0.09
15,TATTGCACGTGTTGTC,0
16,GGCGACACGTGTTGGG,0.12
17,GTAGTCACGTGGCTAT,0.12
18,CTTACCACGTGGGGGG,-0.28
19,AAGGTCACGTGAATGA,0.37
20,TTCTTCACGTGAAGGG,0.45
21,CTATGCACGTGGGGCG,-0.29
22,ATTGTCACGTGGGTTG,-0.09
23,GTTTTCACGTGACTTT,0.36
24,GGATGCACGTGGGAGC,-0.03
25,AGTTTCACGTGCAGGT,0.15
26,ATGTGCACGTGTCTTT,-0.01

row,Sequence,relative binding free energy [kcal/mol]
1,GTACTCACGTGGTTGG,0.29
2,TTTAACACGTGTGAAG,0.13
3,TTGTACACGTGCTTGA,0.04
4,TCTTTCACGTGGGTTG,0.19
5,GTGGACACGTGTTTAG,0.19
6,ATCTTCACGTGTTGTG,0.15
7,ATCATCACGTGGTTTT,0.03
8,GCTGGCACGTGGGAGG,-0.16
9,GGTTGCACGTGGCTCT,-0.06
10,GTTGTCACGTGTGAAA,0.29
11,TATAGCACGTGTTGGC,-0.02
12,GGAGTCACGTGGGGGT,0.1
13,TTTTACACGTGCGGGA,0.19
14,ATATGCACGTGCGTTA,-0.21
15,CGATGCACGTGGGGGC,-0.12
16,TTGGTCACGTGGAGGG,0.06
17,GTAGGCACGTGATGGA,0.07
18,GTGAGCACGTGATAGA,0.1
19,ATTTGCACGTGAGATA,0.22
20,TATTACACGTGGTACT,0
21,GGGCGCACGTGGGAGA,-0.13
22,GATTTCACGTGATATT,0.39
23,TTGGTCACGTGTACAG,0.05
24,TTAGCCACGTGGAGGT,-0.11
25,CTTCTCACGTGTTTTT,0.19
26,ACGGGCACGTGGTTTT,-0.05

row,Sequence,relative binding free energy [kcal/mol]
1,TTTTGCACGTGACATG,0.03
2,TGAGTCACGTGATGCA,0.16
3,TTTTTCACGTGGGACA,0.09
4,AGTGTCACGTGTGATC,0.03
5,GTTAGCACGTGGGCGG,-0.12
6,CCAGGCACGTGGTAGG,-0.1
7,AGTCGCACGTGAGCGG,0.06
8,CGCAACACGTGAGGGT,0.45
9,AGTTACACGTGCGCGG,0.04
10,GTGTTCACGTGGGCCG,0.26
11,CGAGTCACGTGGGATG,0.02
12,ATGGTCACGTGGGCGC,-0.01
13,CTTAGCACGTGGATGT,-0.15
14,CGTTACACGTGGGGAC,0.13
15,GACTGCACGTGATTGG,0.14
16,TTGAGCACGTGATAGA,-0.05
17,CTTGGCACGTGAAGGA,0.15
18,TTTGTCACGTGTTTAA,0.05
19,TAGCTCACGTGTAGGG,0.21
20,TTCGTCACGTGTTACG,0.2
21,AGTGGCACGTGCATTT,-0.14
22,GGTATCACGTGATAAG,0.22
23,AGGTGCACGTGTGACG,0.11
24,ATATACACGTGAGTAG,0.18
25,GTTTTCACGTGGATGA,0.28
26,GAAAGCACGTGGGTAT,-0.11

row,Sequence,relative binding free energy [kcal/mol]
1,ATGGGCACGTGCGCTG,-0.25
2,TCGCTCACGTGGATGG,0.17
3,GGTTACACGTGGAATG,0.23
4,CCTATCACGTGGTGTG,0.06
5,GCGGGCACGTGTTTTA,-0.06
6,GGCGACACGTGGGTCT,-0.01
7,TGTAACACGTGTTGGG,-0.02
8,GTAAGCACGTGCTATG,-0.04
9,GATTGCACGTGTTAGA,0.03
10,AGTATCACGTGCAGTG,0
11,TGGCACACGTGGTGAT,-0.12
12,TGGAACACGTGAATGG,0.23
13,ATGTTCACGTGACTTT,0.26
14,ATATTCACGTGTAGGG,0.29
15,TGCTTCACGTGGCAGG,0.16
16,AGGGCCACGTGGCAGG,-0.24
17,TGAGTCACGTGGCGGT,0.03
18,GGCCTCACGTGTTGGG,0.21
19,TATGTCACGTGAATGT,0.39
20,TTATTCACGTGCTTTA,0.13
21,TTTTTCACGTGGCAGT,0.35
22,CGACGCACGTGCGGGG,-0.1
